In PubChem BioAssay AID1460 (National Center for Advancing Translational Sciences (NCATS), 2008):
Where “and” joins values, the source holds several entries; their conditions need not be identical. Equal entries are not always repeated. About 5,800 (2.1%) of roughly 270,000 compounds were called active. The shares of active, inactive and inconclusive entries below differ from those in the screen. Calls follow the shape of the dose curve; as a rule, active = well fitted inhibition curve with a large enough effect; inconclusive = small, poorly fitted or top-dose-only effect; inactive = flat fitted curve, though single readings scatter. A potency beside an inconclusive call is a rough fit, not a confirmed value.

The compounds below were run against Microtubule-associated protein tau (Homo sapiens) (UniProt P10636) (assay: qHTS for Inhibitors of Tau Fibril Formation, Thioflavin T Binding). Conditions: recombinant tau K18 P301L (four-repeat tau fragment), heparin-induced fibrillization, ThT fluorescence; series mostly up to 57.4 µM.
How it was run: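 Heparin-induced fibrillization of the P301L-mutant K18 repeat-domain fragment of human tau was followed by ThT binding in quantitative high-throughput format.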
Also: nearly all actives have a fitted effect of over 55% in size.
Potency is read from the fitted curve at half-maximal effect; tags tell the direction and shape of the fitted curve.

UniProt P10636, sequence (P10636 whole entry, looked up, the tested form may be a part): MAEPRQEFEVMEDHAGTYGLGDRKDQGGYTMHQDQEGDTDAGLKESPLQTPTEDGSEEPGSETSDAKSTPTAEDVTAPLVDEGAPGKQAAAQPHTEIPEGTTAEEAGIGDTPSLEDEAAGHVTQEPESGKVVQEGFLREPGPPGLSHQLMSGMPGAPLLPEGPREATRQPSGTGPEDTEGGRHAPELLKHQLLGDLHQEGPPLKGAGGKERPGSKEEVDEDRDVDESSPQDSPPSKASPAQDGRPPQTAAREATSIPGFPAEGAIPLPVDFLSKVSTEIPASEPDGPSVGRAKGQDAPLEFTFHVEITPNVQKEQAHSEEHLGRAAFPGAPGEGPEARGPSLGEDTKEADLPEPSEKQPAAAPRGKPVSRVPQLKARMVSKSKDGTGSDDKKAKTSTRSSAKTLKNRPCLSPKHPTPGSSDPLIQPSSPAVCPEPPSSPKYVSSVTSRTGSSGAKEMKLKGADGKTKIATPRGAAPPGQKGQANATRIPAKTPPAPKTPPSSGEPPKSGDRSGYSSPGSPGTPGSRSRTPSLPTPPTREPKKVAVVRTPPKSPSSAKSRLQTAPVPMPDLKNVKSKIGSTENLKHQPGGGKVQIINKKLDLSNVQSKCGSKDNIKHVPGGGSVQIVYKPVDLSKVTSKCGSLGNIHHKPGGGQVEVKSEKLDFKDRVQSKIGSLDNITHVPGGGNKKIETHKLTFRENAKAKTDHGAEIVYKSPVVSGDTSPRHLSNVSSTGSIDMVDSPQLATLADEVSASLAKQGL

Row | Compound | Potency
1 | COC(=O)[C@@H]1CC2=CC(=O)CC[C@]2(C)[C@@]23O[C@@H]2C[C@@]2(C)[C@H](CC[C@@]24CCC(=O)O4)[C@@H]13 | inactive
2 | Cc1ccc(SCC(=O)Nc2ccc(N3CCN(c4ccccc4)CC3)c(F)c2)cc1 | inconclusive: 1 µM [inhibitor, full curve]
3 | COc1cc(OC)cc(C(=O)NCC(=O)OCC(=O)/C=C2/N(C)c3ccccc3C2(C)C)c1 | inconclusive: 22.4 µM [inhibitor, partial curve]
4 | Cc1ccc(O)c(N=Nc2ccccc2)n1 | active: 17.8 µM
5 | O=[N+]([O-])c1cc(C(F)(F)F)cc([N+](=O)[O-])c1NN=C1CCCCC1 | active: 12.6 µM
6 | O=C(/C=C/c1ccccc1[N+](=O)[O-])N1CCN(c2ccccc2F)CC1 | inactive
7 | Cc1sc(NC(=O)c2ccco2)nc1-c1ccccc1 | inconclusive: 15.8 µM [inhibitor, partial curve]
8 | Cc1c(NC(=O)COC(=O)COc2ccc(Nc3ccccc3)cc2)c(=O)n(-c2ccccc2)n1C | inconclusive: 12.6 µM [inhibitor, partial curve, poor fit]
9 | O=C(Nc1nccs1)c1ccc(-c2cccc([N+](=O)[O-])c2)o1 | inconclusive: 5.01 µM [inhibitor, full curve]
10 | COc1ccc(CNC(=O)Cc2c(C)c3c(cc(C)c4c(C)c(C)oc43)oc2=O)cc1 | inactive
11 | Cc1ccccc1NC(=O)Cn1c(O)c(N=NC(=O)c2ccccc2O)c2ccccc21 | inconclusive: 1.78 µM [inhibitor, full curve]
12 | Cc1ccc(-n2nc(C)c3c2NC2=C(C(=O)CC(C)(C)C2)C3c2ccccc2OCC(=O)O)cc1 (stereo unspecified) | inactive
13 | Cc1c(C)c2c(c(C)c1O)CCC(C)(COc1ccc(CC3SC(=O)NC3=O)cc1)O2 (stereo unspecified) | inconclusive: 17.8 µM [inhibitor, partial curve] and inconclusive: 22.4 µM [inhibitor, partial curve]
14 | Cc1cc(=O)[nH]c(N/N=C2/CCCC/C2=C\c2ccccc2)n1 | inconclusive: 31.6 µM [inhibitor, single point]
15 | Cc1cc(=O)n2nc(N3CCC(C(=O)Nc4ccc(C)c(Cl)c4)CC3)sc2n1 | inconclusive: 0.631 µM [inhibitor, full curve, poor fit]
16 | O=C(COc1ccc(S(=O)(=O)N2CCCCC2)cc1)NCc1ccncc1 | inactive
17 | COc1ccc2c(c1)OC/C(=C\c1ccc(OC)c(O)c1)C2=O | active: 4.47 µM
18 | Cc1ccc(NS(=O)(=O)c2ccc(N3CCN(c4ccc(O)cc4)CC3)c([N+](=O)[O-])c2)c(C)c1 | active: 14.1 µM
19 | Cc1ccccc1NC(=S)/C(=C(\[O-])c1cc(C)n(Cc2ccccc2Cl)c1C)[n+]1ccccc1 | inconclusive: 35.5 µM [inhibitor, partial curve]
20 | Cn1cnnc1SCC(=O)c1ccc2c(c1)CCCC2 | inconclusive: 15.8 µM [inhibitor, partial curve]
21 | Oc1ccc(/C=N/N2CCN(c3ccccn3)CC2)cc1 | inconclusive: 5.62 µM [inhibitor, partial curve, poor fit]
22 | CCOc1ccccc1NC(=O)c1nnn(CC(=O)Nc2ccc(OC)c(OC)c2)c1N | inconclusive: 12.6 µM [inhibitor, partial curve]
23 | CC(=O)Nc1ccc(S(=O)(=O)/N=C2/NC(=O)/C(=C\c3ccco3)S2)cc1 | inconclusive: 10 µM [inhibitor, partial curve, poor fit]
24 | O=C(N/N=C\c1coc2ccccc2c1=O)c1ccco1 | inactive

Row | Compound | Potency
25 | Cn1[nH]c(CSc2ccc(Cl)cc2)cc1=O | inconclusive: 1.58 µM [inhibitor, full curve]
26 | O=[N+]([O-])c1cc(C(F)(F)F)ccc1NCCCCNS(=O)(=O)c1ccc2ccccc2c1 | inconclusive: 5.01 µM [inhibitor, partial curve]
27 | Cc1c(NC(=S)N/N=C\c2ccccc2O)c(=O)n(-c2ccccc2)n1C | inactive
28 | Oc1csc(Cc2nc(-c3ccccc3F)cs2)n1 | active: 14.1 µM
29 | CC1Cc2ccccc2N1C(=O)CSc1ccccc1 (stereo unspecified) | inactive
30 | O=C(COc1cccc2ccccc12)N/N=C/c1ccncc1 | inconclusive: 25.1 µM [inhibitor, single point]
31 | O=C(Nc1ccc(N2CCOCC2)cc1)C1CC(=O)N(c2ccc(Cl)cc2)C1 (stereo unspecified) | inconclusive: 15.8 µM [inhibitor, partial curve]
32 | Cc1ccc(CNC(=O)c2ccc3c(O)c(S(=O)(=O)c4ccccc4)c(=O)[nH]c3c2)cc1 | inactive
33 | COc1ccc(S(=O)(=O)N(C)C)cc1NCC(=O)Nc1ccc(Br)cc1F | inactive
34 | Cc1cc(N2CCCC2)ccc1/C=C1/C(=O)N(C)C(=S)N1C | inconclusive: 2.24 µM [inhibitor, partial curve]
35 | CC1NC(=O)N(C)[C@@H]2NC(=O)N(C)C(c3ccc([N+](=O)[O-])cc3)[C@@H]12 (stereo partly specified) | inactive
36 | CCC(C)Oc1cccc(C(=O)Nc2ccccc2N2CCOCC2)c1 (stereo unspecified) | inactive
37 | COc1ccc(/C=C2\SC(=O)N(CC(=O)NNC(=O)c3ccccc3O)C2=O)cc1OC | inconclusive: 2.24 µM [inhibitor, partial curve]
38 | COc1ccccc1NC(=O)C(=O)N1N=C(C(C)C)CC1(O)C(F)(F)F (stereo unspecified) | inconclusive: 17.8 µM [inhibitor, partial curve]
39 | Cc1cc(C2=NNC(=NC3CC3)SC2)c(C)n1-c1ccccc1F | inactive
40 | Cc1ccc2c(c1)c1c3n2CCCNC3CCC1 (stereo unspecified) | inactive
41 | Clc1ccc2oc(-c3ccccc3)cc(=NCCCN3CCOCC3)c2c1 | inconclusive: 17.8 µM [inhibitor, partial curve]
42 | COc1ccccc1-c1cc(C(=O)N2CCCCC2C)no1 (stereo unspecified) | inactive
43 | CC1=NN(c2ccccc2)C(=O)/C1=C/C=C/C=C/N(C)C | active: 15.8 µM
44 | O=P(O)(O)O[C@@H]1[C@H](O)[C@H](O)[C@@H](OP(=O)(O)O)[C@H](OP(=O)(O)O)[C@H]1O | inactive
45 | COc1ccc(OC)c(C(C)NC(=O)Cn2c(=O)cc(C)c3c(C)nn(-c4ccc(C)cc4)c32)c1 (stereo unspecified) | inactive
46 | COc1ccc(OC)c(/C=C2\SC(=S)N(N3CCOCC3)C2=O)c1 | inconclusive: 3.98 µM [inhibitor, partial curve, poor fit]
47 | CN=c1scc(C)n1/N=C/c1cc(Br)c(O)c(Br)c1 | inconclusive: 7.94 µM [inhibitor, partial curve]
48 | CN(C)c1nc(-c2ccccc2)c2cnn(Cc3ccccc3)c2n1 | inconclusive: 12.6 µM [inhibitor, partial curve, poor fit]

Row | Compound | Potency
49 | Cc1cc(N2CCCCC2)nc2ccc(NC(=O)/C=C/c3ccccc3Cl)cc12 | active: 4.47 µM
50 | O=[N+]([O-])c1ccc(N2CCOCC2)cc1SCc1ccco1 | inconclusive: 15.8 µM [inhibitor, partial curve]
51 | Cc1ccc(S(=O)(=O)NCc2ccc3c(c2)cc(C)n3C)cc1 | inconclusive: 25.1 µM [inhibitor, partial curve]
52 | O=C(N=Nc1c(O)n(Cc2ccccc2)c2ccccc12)c1ccncc1 | active: 15.8 µM
53 | CCCc1n(CC(O)COCc2ccccc2)c2ccccc2[n+]1C (stereo unspecified) | inactive
54 | O=C(NCc1ccc(Cl)cc1)C1CCCN(c2nc3ccccc3n3cccc23)C1 (stereo unspecified) | inactive
55 | CCOc1ccc(S(=O)(=O)N(CC(=O)NCCSc2ccccc2)c2ccccc2)cc1 | inactive
56 | CCN(c1ccc(OC)cc1)S(=O)(=O)c1ccc2[nH]c(=O)ccc2c1 | inconclusive: 14.1 µM [inhibitor, partial curve]
57 | N=C1C(c2nc3ccccc3s2)=C(O)CN1Cc1ccco1 | inconclusive: 25.1 µM [inhibitor, single point]
58 | COc1ccc(NCc2nnc(SCC(=O)c3ccc(OC)cc3)o2)cc1 | inconclusive: 25.1 µM [inhibitor, partial curve]
59 | COc1ccccc1N1CCN(CCn2c(=O)c3c(c4ccccc4n3C)n(C)c2=O)CC1 | inactive and inconclusive: 15.8 µM [inhibitor, partial curve]
60 | CCOC(=O)C1=C(Cc2ccc(OC)cc2)C(=O)c2ccccc2C1=O | active: 8.91 µM
61 | C=CCOn1c(=O)c(-c2ccc(OC)c(OC)c2)[n+]([O-])c2ccccc21 | inconclusive: 22.4 µM [inhibitor, partial curve]
62 | O=C(Nc1ccc(C2CC2(Cl)Cl)cc1)c1ccccc1Br (stereo unspecified) | inactive
63 | O=C(COC(=O)CCSc1ccc(Cl)cc1)NCc1ccco1 | inconclusive: 39.8 µM [inhibitor, single point]
64 | Cc1cccc(-c2nc(Cn3c(=O)cc(-c4ccccc4)c4c(C)nn(C)c43)c(C)o2)c1 | inactive
65 | COc1ccc2c(c1)OC1(O)COc3cc(OC)c(OC)cc3C1=C2 (stereo unspecified) | active: 5.62 µM
66 | CCn1cc(C(=O)OCC(=O)Nc2ccc(F)cc2F)c(=O)c2ccc(C)nc21 | inconclusive: 39.8 µM [inhibitor, single point]
67 | CCOc1cccc2c1OC1(C)CC2NC(=O)N1c1ccc(OC)cc1 (stereo unspecified) | inactive
68 | COC(=O)c1[nH]c2cc(OC)c(OC)cc2c1NC(=O)Oc1ccccc1 | inconclusive: 14.1 µM [inhibitor, partial curve]
69 | Cc1cc(C(=O)N2CCCCCC2)cs1 | inactive
70 | O=C(O)CC1S/C(=N/N=C/c2ccc(-c3ccc(Cl)c([N+](=O)[O-])c3)o2)NC1=O (stereo unspecified) | active: 7.08 µM
71 | CC(C)Cn1cc(NC(=O)N2CCN(c3ccccc3F)CC2)c2ccccc2c1=O | inconclusive: 22.4 µM [inhibitor, single point]
